The other results are listed elsewhere or left out.

For this experiment, the target named is T1, MBP-FoxP1dN (Mus musculus, UniProt P58462 326-579).
T1 sequence: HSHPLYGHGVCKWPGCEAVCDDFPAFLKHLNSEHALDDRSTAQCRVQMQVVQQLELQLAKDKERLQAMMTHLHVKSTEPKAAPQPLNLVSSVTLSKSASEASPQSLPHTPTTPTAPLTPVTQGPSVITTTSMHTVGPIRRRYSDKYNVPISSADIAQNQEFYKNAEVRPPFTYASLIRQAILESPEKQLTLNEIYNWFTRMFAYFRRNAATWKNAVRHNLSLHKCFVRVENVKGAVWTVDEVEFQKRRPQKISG
The experiment can be described thus: PD-seq (MBP pull-down with sequencing); 20 mM Tris-HCl pH 7.5, 100 mM NaCl, 1.5 mM MgCl2, 0.4 uM protein, 0.1 uM dsDNA library, 30 min, room temperature, amylose pull-down; high values mean tight binding. The note with it: protein: recombinant; tags: His6-MBP; chain copies: 2; dsDNA, one strand shown. Put shortly:
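Protein and DNA were mixed at 0.4 µM and 0.1 µM and held for 30 min at room temperature in Tris pH 7.5 buffer with NaCl and MgCl2; the protein was a His6-MBP-tagged, N-terminally truncated mouse FoxP3 or FoxP1 fragment from E. coli, and the DNA a Klenow-filled double-stranded degenerate library. Amylose resin captured the complexes, which were washed three times. Binding is read as reads-per-million enrichment of pull-down versus input after Illumina sequencing, with replicates pooled.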
Take “GATGATTGTTCTCCCAGCTGATGAATTTCTGCTCTCGAGTAAACAAATTTTCCTAATCTTTCTGTTCAAGCGCCATCTAC”: the binding signal is 0.769 RPM ratio (pull-down/input). Then “GATGATTGTTCTCCCAGCTGATGAATTGACGGTCTCGAGTAAACAAATTTTCCTAATCTTTCTGTTCAAGCGCCATCTAC”, with 0.969 RPM ratio (pull-down/input). Under “GATGATTGTTCTCCCAGCTGATGAATTATTGGGGTCGAGTAAACAAATTTTCCTAATCTTTCTGTTCAAGCGCCATCTAC” stands 1.1 RPM ratio (pull-down/input); under “GATGATTGTTCTCCCAGCTGATGAATTACAGAGCTCGAGTAAACAAATTTTCCTAATCTTTCTGTTCAAGCGCCATCTAC”, 0.895 RPM ratio (pull-down/input); under “GATGATTGTTCTCCCAGCTGATGAATTAATTTAGTCGAGTAAACAAATTTTCCTAATCTTTCTGTTCAAGCGCCATCTAC”, 1.02 RPM ratio (pull-down/input). For the sequence “GATGATTGTTCTCCCAGCTGATGAATTATGTTCGTCGAGTAAACAAATTTTCCTAATCTTTCTGTTCAAGCGCCATCTAC”, the binding signal is 1.06 RPM ratio (pull-down/input). Then “GATGATTGTTCTCCCAGCTGATGAATTACCAGATTCGAGTAAACAAATTTTCCTAATCTTTCTGTTCAAGCGCCATCTAC”, with 1.09 RPM ratio (pull-down/input); and “GATGATTGTTCTCCCAGCTGATGAATTGCAAAAGTCGAGTAAACAAATTTTCCTAATCTTTCTGTTCAAGCGCCATCTAC”, with 1.27 RPM ratio (pull-down/input). Turning to “GATGATTGTTCTCCCAGCTGATGAATTTGCGGCCTCGAGTAAACAAATTTTCCTAATCTTTCTGTTCAAGCGCCATCTAC”, the binding signal is 0.854 RPM ratio (pull-down/input). With “GATGATTGTTCTCCCAGCTGATGAATTAGGATTTTCGAGTAAACAAATTTTCCTAATCTTTCTGTTCAAGCGCCATCTAC”, the binding signal was 0.944 RPM ratio (pull-down/input). Then “GATGATTGTTCTCCCAGCTGATGAATTATGGAACTCGAGTAAACAAATTTTCCTAATCTTTCTGTTCAAGCGCCATCTAC”, with 0.879 RPM ratio (pull-down/input). Under “GATGATTGTTCTCCCAGCTGATGAATTACCGTAATCGAGTAAACAAATTTTCCTAATCTTTCTGTTCAAGCGCCATCTAC” stands 1.48 RPM ratio (pull-down/input). Take “GATGATTGTTCTCCCAGCTGATGAATTTTTACTATCGAGTAAACAAATTTTCCTAATCTTTCTGTTCAAGCGCCATCTAC”: the binding signal is 1.1 RPM ratio (pull-down/input). Then “GATGATTGTTCTCCCAGCTGATGAATTACATAAGTCGAGTAAACAAATTTTCCTAATCTTTCTGTTCAAGCGCCATCTAC”, with 1.23 RPM ratio (pull-down/input); and “GATGATTGTTCTCCCAGCTGATGAATTAGTCCAGTCGAGTAAACAAATTTTCCTAATCTTTCTGTTCAAGCGCCATCTAC”, with 0.824 RPM ratio (pull-down/input); and “GATGATTGTTCTCCCAGCTGATGAATTGCGCTTCTCGAGTAAACAAATTTTCCTAATCTTTCTGTTCAAGCGCCATCTAC”, with 0.999 RPM ratio (pull-down/input). On to “GATGATTGTTCTCCCAGCTGATGAATTCCCTCCGTCGAGTAAACAAATTTTCCTAATCTTTCTGTTCAAGCGCCATCTAC”, for which the binding signal was 0.836 RPM ratio (pull-down/input). Then “GATGATTGTTCTCCCAGCTGATGAATTGCCTTTATCGAGTAAACAAATTTTCCTAATCTTTCTGTTCAAGCGCCATCTAC”, with 1.12 RPM ratio (pull-down/input). Under “GATGATTGTTCTCCCAGCTGATGAATTTCAGTGCTCGAGTAAACAAATTTTCCTAATCTTTCTGTTCAAGCGCCATCTAC” stands 0.817 RPM ratio (pull-down/input).

With “GATGATTGTTCTCCCAGCTGATGAATTACGAATCTCGAGTAAACAAATTTTCCTAATCTTTCTGTTCAAGCGCCATCTAC”, the binding signal was 1.03 RPM ratio (pull-down/input).

Regarding “GATGATTGTTCTCCCAGCTGATGAATTTCTAGCTTCGAGTAAACAAATTTTCCTAATCTTTCTGTTCAAGCGCCATCTAC”, the binding signal was 0.913 RPM ratio (pull-down/input). Then “GATGATTGTTCTCCCAGCTGATGAATTCGGAGGATCGAGTAAACAAATTTTCCTAATCTTTCTGTTCAAGCGCCATCTAC”, with 0.831 RPM ratio (pull-down/input); and “GATGATTGTTCTCCCAGCTGATGAATTAAAAGCCTCGAGTAAACAAATTTTCCTAATCTTTCTGTTCAAGCGCCATCTAC”, with 0.944 RPM ratio (pull-down/input); and “GATGATTGTTCTCCCAGCTGATGAATTTTTCTATTCGAGTAAACAAATTTTCCTAATCTTTCTGTTCAAGCGCCATCTAC”, with 0.984 RPM ratio (pull-down/input). Under “GATGATTGTTCTCCCAGCTGATGAATTAAATATCTCGAGTAAACAAATTTTCCTAATCTTTCTGTTCAAGCGCCATCTAC” stands 1.01 RPM ratio (pull-down/input). Under “GATGATTGTTCTCCCAGCTGATGAATTAATAACCTCGAGTAAACAAATTTTCCTAATCTTTCTGTTCAAGCGCCATCTAC” stands 1 RPM ratio (pull-down/input); under “GATGATTGTTCTCCCAGCTGATGAATTGGCATTTTCGAGTAAACAAATTTTCCTAATCTTTCTGTTCAAGCGCCATCTAC”, 1.13 RPM ratio (pull-down/input); under “GATGATTGTTCTCCCAGCTGATGAATTCTGTTACTCGAGTAAACAAATTTTCCTAATCTTTCTGTTCAAGCGCCATCTAC”, 1.1 RPM ratio (pull-down/input). As for “GATGATTGTTCTCCCAGCTGATGAATTCCAGCTCTCGAGTAAACAAATTTTCCTAATCTTTCTGTTCAAGCGCCATCTAC”, the binding signal is 0.704 RPM ratio (pull-down/input). Then “GATGATTGTTCTCCCAGCTGATGAATTATATTCCTCGAGTAAACAAATTTTCCTAATCTTTCTGTTCAAGCGCCATCTAC”, with 0.968 RPM ratio (pull-down/input); and “GATGATTGTTCTCCCAGCTGATGAATTGCACTGGTCGAGTAAACAAATTTTCCTAATCTTTCTGTTCAAGCGCCATCTAC”, with 1.09 RPM ratio (pull-down/input); and “GATGATTGTTCTCCCAGCTGATGAATTGTGCCCCTCGAGTAAACAAATTTTCCTAATCTTTCTGTTCAAGCGCCATCTAC”, with 0.989 RPM ratio (pull-down/input).
